Experimental findings from paper PMC4336329 (PLoS ONE, 2015) are described below.

About 14,000 (4.5%) of roughly 310,000 compounds showed an effect of 50% or more. Effects have a minus sign here. The list shows a part of the results.
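Further: peak tail current of the secondary pulse compared with the same well before compound.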

For the assay, the target named is human ether-à-go-go-related gene (hERG) potassium channel (human, UniProt Q12809). As to the kind of experiment: primary screen, population patch clamp on CHO cells stably expressing hERG.
human ether-à-go-go-related gene (hERG) potassium channel, sequence (Q12809 whole entry, looked up): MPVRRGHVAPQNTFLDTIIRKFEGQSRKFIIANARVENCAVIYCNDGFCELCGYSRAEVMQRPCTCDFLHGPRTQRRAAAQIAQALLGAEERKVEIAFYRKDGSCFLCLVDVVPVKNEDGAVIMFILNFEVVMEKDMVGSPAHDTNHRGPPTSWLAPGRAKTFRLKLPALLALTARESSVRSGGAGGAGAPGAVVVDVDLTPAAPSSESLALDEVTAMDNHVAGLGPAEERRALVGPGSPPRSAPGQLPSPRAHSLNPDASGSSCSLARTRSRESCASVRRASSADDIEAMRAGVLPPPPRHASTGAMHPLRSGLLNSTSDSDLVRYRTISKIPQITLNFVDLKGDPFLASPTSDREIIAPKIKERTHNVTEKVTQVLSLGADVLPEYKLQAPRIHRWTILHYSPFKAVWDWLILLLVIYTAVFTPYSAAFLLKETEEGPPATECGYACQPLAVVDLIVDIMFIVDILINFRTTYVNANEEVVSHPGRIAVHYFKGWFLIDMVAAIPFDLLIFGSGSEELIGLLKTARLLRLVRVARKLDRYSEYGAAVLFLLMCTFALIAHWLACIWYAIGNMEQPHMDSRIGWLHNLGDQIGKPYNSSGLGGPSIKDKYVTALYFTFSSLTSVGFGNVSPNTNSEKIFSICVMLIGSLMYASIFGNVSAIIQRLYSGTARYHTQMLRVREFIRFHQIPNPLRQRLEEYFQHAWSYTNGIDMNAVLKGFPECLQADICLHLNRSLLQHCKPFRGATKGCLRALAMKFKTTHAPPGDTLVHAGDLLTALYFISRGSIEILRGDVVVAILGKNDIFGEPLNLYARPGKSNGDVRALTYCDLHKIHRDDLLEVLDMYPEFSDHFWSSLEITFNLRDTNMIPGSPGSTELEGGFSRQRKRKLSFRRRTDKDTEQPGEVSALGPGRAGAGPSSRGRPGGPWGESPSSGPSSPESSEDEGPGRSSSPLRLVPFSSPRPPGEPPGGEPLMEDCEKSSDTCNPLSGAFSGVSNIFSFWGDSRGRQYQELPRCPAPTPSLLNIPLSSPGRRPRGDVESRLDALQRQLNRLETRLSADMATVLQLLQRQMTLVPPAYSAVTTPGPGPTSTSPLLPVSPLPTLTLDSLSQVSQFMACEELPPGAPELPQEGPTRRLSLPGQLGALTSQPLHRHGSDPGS
As for `Cc1cc(OCC(=O)N(Cc2ccccc2)C2CCS(=O)(=O)C2)ccc1Cl` (centres unmarked), the “hERG current change (%, negative = inhibition) at 10uM” value is reported as -14.1%. Under `CC(=O)c1c(COC(=O)c2cccc(C)c2)nc2ccccc2[n+]1[O-]` stands -1.95%. Consider `CSc1ccc(NC(=O)N2CC=C(n3c(=O)[nH]c4ccccc43)CC2)cc1`, for which the “hERG current change (%, negative = inhibition) at 10uM” value is recorded as -14.3%. Under `CC(C#N)(NC(=O)COC(=O)c1ccccc1NCCO)C1CC1` (centres unmarked) stands 5.49%; under `CC1CCCN(C(=S)Nc2ccc(S(=O)(=O)N3CCCCC3)cc2)C1` (centres unmarked), -15.9%; under `Nc1[nH]n2c(=O)c3c(nc2c1N=Nc1ccc(Cl)cc1)CCCC3`, -8.56%. The result for `O=C(CO/N=C/c1ccccc1OC(F)F)NCc1ccco1` reads -5.06%; that for `CCOC(=O)C1CCN(C(=O)CS(=O)Cc2nc(-c3ccc(C)cc3)oc2C)CC1` (centres unmarked), -0.626%; that for `CCOC(=O)N1c2ccccc2Sc2ccccc21`, 2.15%.

For the molecule `COCCn1c(SCC(=O)Nc2cc(C(C)(C)C)nn2-c2ccccc2)nnc1-c1ccncc1`, the “hERG current change (%, negative = inhibition) at 10uM” value is reported as -60%.

Consider `CCN(CC(=O)NCc1ccc(Cl)cc1)C(=O)CN1C(=O)NC(CC)(c2ccccc2)C1=O` (centres unmarked), for which the “hERG current change (%, negative = inhibition) at 10uM” value was -6.03%. The result for `COc1ccc(C(CNC(=O)c2cccc(NS(=O)(=O)c3ccc(C)c(F)c3)c2)N2CCCC2)cc1` (centres unmarked) reads -64%; that for `Cc1cc(=O)oc2c3c(cc(OCC(=O)NCCC(=O)O)c12)OC(C)(C)CC3`, 10.8%; that for `NC(=O)COC(=O)C(Cc1ccccc1)NS(=O)(=O)c1ccccc1F` (centres unmarked), 11.5%.

As for `COc1ccc(C2NC(=S)N(c3ccccc3)C(C)=C2C(=O)Nc2ccccc2)cc1` (centres unmarked), the “hERG current change (%, negative = inhibition) at 10uM” value is listed as 2.82%. Under `C[C@H](NC(=O)Cc1cccc2ccccc12)C(=O)NCc1ccccc1` stands 7.09%; under `O=Nc1c(O)[nH]c2c(F)cccc12`, 1.42%. Under `CN(Cc1cccs1)C(=O)CSc1nc2ccccc2[nH]1` stands 1.16%; under `COc1ccc(C)cc1S(=O)(=O)N(CC(=O)NCc1ccco1)c1ccc(C)cc1`, -38.7%. Under `O=C(COc1ccc(-c2nnco2)cc1)Nc1c(Cl)cccc1C(F)(F)F` stands 2.41%; under `C=CCc1cccc2cc(C(=O)N3CCN(C(=O)OCC)CC3)c(=O)oc12`, -26.9%; under `CCc1ccc(N2CC(C(=O)Nc3nccs3)CC2=O)cc1` (centres unmarked), -5.56%. Consider `CCC(C)NC(=O)COC(=O)c1csc2c1CCCC2` (centres unmarked), for which the “hERG current change (%, negative = inhibition) at 10uM” value amounted to 11.1%.

For the molecule `O=C(NCc1ccc2c(c1)OCO2)c1cccs1`, the “hERG current change (%, negative = inhibition) at 10uM” value is -16.5%.

For `Cc1cccc(N(CC(=O)NC(C)(C)C)C(=O)CCC(=O)Nc2ccccn2)c1`, the “hERG current change (%, negative = inhibition) at 10uM” value is given as 22.5%. The result for `COc1ccc(N2C(=O)CC(Nc3cccc(C(C)=O)c3)C2=O)cc1OC` (centres unmarked) reads 7.07%; that for `CN1C(=O)C(CC(=O)Nc2ccc(Cl)cc2)N(Cc2ccco2)C1=S` (centres unmarked), -3.36%; that for `O=[N+]([O-])c1ccc(N/N=C/C=C/c2ccco2)cc1`, 7%.

For the molecule `CC(C)CCOP(=O)(c1ccc(N(C)C)cc1)C(O)c1ccc(N(C)C)cc1` (centres unmarked), the “hERG current change (%, negative = inhibition) at 10uM” value was -3.32%. Under `O=C(NC1CCC(O)CC1)c1cccnc1Sc1ccccc1Cl` (centres unmarked) stands 10.4%; under `O=C(O)CCC(=O)Nc1ccc(Br)c(Cl)c1`, 20.6%; under `CC(C)(C)C(=O)NC1(C(F)(F)F)NC(=O)N(c2ccccc2F)C1=O` (centres unmarked), 14.6%. The result for `COc1cc(NC(=O)CSc2nc3ccccc3c(=O)n2C)ccc1NC(=O)c1ccco1` reads -29.4%; that for `COc1ccc(Nc2nc(N3CCCCC3)nc3ccccc23)c(OC)c1`, -62.9%. The result for `O=C(COc1ccccc1)NC(=S)Nc1cccc(NC(=O)c2ccccc2Cl)c1` reads 9.14%. As to `COc1ccc(NC(=O)CSc2nc3ccccc3c3nc4ccccc4n23)cc1`, the “hERG current change (%, negative = inhibition) at 10uM” value is given as 4.3%.

Take `COC(=O)C1(Cc2ccccc2)NC(c2ccccc2C)C2C(=O)N(c3ccc4c(c3)OCO4)C(=O)C21` (centres unmarked): the “hERG current change (%, negative = inhibition) at 10uM” value is recorded as 3.57%. Turning to `CC(=O)Nc1ccccc1OCC(=O)NC(C)c1ccccc1` (centres unmarked), the “hERG current change (%, negative = inhibition) at 10uM” value came to 2.08%. On to `Cc1ccc2cc3c(N)[nH]nc3nc2c1`, for which the “hERG current change (%, negative = inhibition) at 10uM” value is on record as -2.36%. The result for `CN/C(=C\[N+](=O)[O-])NCCSCc1ccc(CN(C)C)o1.Cl` reads 9.07%; that for `C/C(=N\NC(=O)Cc1ccc(Br)cc1)c1cccnc1`, -7.27%. Under `COCCCNC(=O)C1CCN(C(=O)c2oc3cc4sc(N(C)C)nc4cc3c2C)CC1` stands 7.03%; under `O=C(O)CCC(=O)Nc1ccc(Br)cc1C(=O)c1ccccc1`, 19.4%. In the case of `COCCCN1C(=O)C(=O)/C(=C(/O)c2ccc(S(=O)(=O)N3CCOCC3)cc2)C1c1ccc(C)cc1` (centres unmarked), the “hERG current change (%, negative = inhibition) at 10uM” value was found to be 2.78%.
